Measured values reported in PubChem BioAssay AID1478 (National Center for Advancing Translational Sciences (NCATS), 2009).
In all, about 200,000 compounds went through this assay and about 860 (0.43%) were called active. The shares of active, inactive and inconclusive entries below differ from those in the screen. The call rests on the fitted dose curve; in most records, active means well fitted inhibition curve with a large enough effect; inconclusive means small, poorly fitted or top-dose-only effect; inactive means flat fitted curve, though single readings scatter. Where the call is inconclusive, the potency comes from a doubtful curve fit.

Biological target: Cruzipain (Trypanosoma cruzi) (UniProt P25779)
Assay: qHTS Assay for Promiscuous and Specific Inhibitors of Cruzain (with detergent); further: nearly all actives have a fitted effect of over 40% in size;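 on max response, negative = inhibition: plate controls were neutral wells for no effect and buffer without enzyme for full effect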
Conditions: purified cruzain, Z-FR-AMC fluorescence, 0.01% Triton
Outline: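 Detergent-containing arm of a paired screen for aggregation-based inhibition: 0.01% Triton X-100 present. Cruzain at 1.5 nM cleaved 2 uM Z-FR-AMC at pH 5.5 with 5 mM DTT; AMC fluorescence gain over 60 s measured activity.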
Potency means the concentration at half of the fitted maximal effect; tags describe the fitted curve by direction and shape.

Chain of UniProt P25779 (P25779 whole entry, looked up): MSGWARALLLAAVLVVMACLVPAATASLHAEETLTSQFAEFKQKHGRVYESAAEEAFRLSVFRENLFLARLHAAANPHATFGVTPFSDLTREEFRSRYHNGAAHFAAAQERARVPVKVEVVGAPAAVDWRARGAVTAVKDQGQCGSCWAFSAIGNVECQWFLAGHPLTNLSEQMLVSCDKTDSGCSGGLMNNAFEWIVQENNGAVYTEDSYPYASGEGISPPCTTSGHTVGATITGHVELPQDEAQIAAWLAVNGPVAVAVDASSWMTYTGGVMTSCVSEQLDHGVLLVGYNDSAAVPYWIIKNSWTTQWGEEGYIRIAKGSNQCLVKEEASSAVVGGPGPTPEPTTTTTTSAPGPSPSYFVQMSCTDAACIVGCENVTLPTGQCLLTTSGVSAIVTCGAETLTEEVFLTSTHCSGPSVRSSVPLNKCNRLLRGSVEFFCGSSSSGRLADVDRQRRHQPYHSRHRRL

| Structure (SMILES) | Potency | max response, negative = inhibition |
| --- | --- | --- |
| NC(=S)Nc1nc2ccccc2[nH]c1=O | active: 7.94 µM |  |
| O=C1CCCC2=C1C(c1ccc(Br)cc1)c1c([nH]c(=S)[nH]c1=O)N2 (stereo unspecified) | active: 17.8 µM |  |
| CC1CCc2nn(CC(=O)Nc3ccccc3Cl)cc2C1 (stereo unspecified) |  | inactive: -7.78% |
| CC(C)(C)NC(=O)COC(=O)CNC(=O)c1cc(Cl)cc([N+](=O)[O-])c1 | active: 25.1 µM |  |
| O=C(c1cccc([N+](=O)[O-])c1)N1CCN(c2ccc(Nc3ccccc3)nn2)CC1 |  | inactive: -6.46% |
| O=C(c1ccco1)N1CCC2(CCCN(c3ncccn3)C2)CC1 |  | inactive: -0.112% |
| Cc1cc(NS(=O)(=O)c2ccc(NC(=O)COc3ccccc3Br)cc2)no1 |  | inactive: -18.5% |
| COc1ccc(CCNC(=O)C(C)n2nc(C)c3sc4ccccc4c3c2=O)c(OC)c1 (stereo unspecified) | inconclusive: 10 µM [inhibitor, partial curve] |  |
| Cc1cccc(C)c1NC(=O)CSc1nnc(-c2ccco2)c(-c2ccco2)n1 | inconclusive: 39.8 µM [inhibitor, single point] |  |
| CC(C)CNC(=O)COC(=O)CNC(=O)c1cc(Cl)cc([N+](=O)[O-])c1 | active: 10 µM |  |
| O=C(Nc1nnc(Cc2c[nH]c3ccccc23)s1)c1ccc(Cl)cc1Cl |  | inactive: -8.34% |
| CSc1ccc(CCNC(=O)CCCn2c(=O)c3cccn3c3ccccc32)cc1 |  | inactive: -2.78% |
| COc1ccc(-c2nc(C#N)c(NCCCN3CCOCC3)o2)cc1 | active: 20 µM |  |
| N#Cc1cc2c(=O)n3ccccc3nc2n(CCCn2ccnc2)c1=N | inconclusive: 31.6 µM [inhibitor, single point] |  |
| O=C(COC(=O)CNS(=O)(=O)c1ccccc1)Nc1ccc(Cl)cn1 | inconclusive: 25.1 µM [inhibitor, partial curve] |  |
| CC1CCN(C(=O)c2ccc3c(c2)N(Cc2ccccc2F)C(=O)c2ccccc2S3(=O)=O)CC1 |  | inactive: -3.45% |
| COCCCN(Cc1ccco1)C(=O)c1cc2c(s1)-c1ccccc1OC2 | inconclusive: 35.5 µM [inhibitor, single point] |  |
| CCn1c2ccccc2c2cc(/C=N/NC(=O)c3ccccc3)ccc21 | inconclusive: 14.1 µM [inhibitor, partial curve] |  |
| c1ccc(Nc2nc3ccccc3[nH]2)nc1 | active: 25.1 µM |  |
| COc1cccc(OCCCn2cc(/C=C3/C(=N)N4C=C(C)SC4=NC3=O)c3ccccc32)c1 |  | inactive: -2.35% |
| Cc1ccc(C)c(SCC(=O)OCC(=O)Nc2ncc(C(F)(F)F)cc2Cl)c1 | inconclusive: 28.2 µM [inhibitor, single point] |  |
| CCCCNC(=O)c1cc2c(=O)n3cccc(C)c3nc2n(Cc2ccncc2)c1=N | active: 22.4 µM |  |
| COc1ccc(-c2cc(C(F)(F)F)nc(-n3cc(Br)cn3)n2)cc1 | inconclusive: 11.2 µM [inhibitor, partial curve] |  |
| O=C(Nc1ccc2c(c1)OCO2)c1ccc(Br)o1 |  | inactive: 0.56% |

| Structure (SMILES) | Potency | max response, negative = inhibition |
| --- | --- | --- |
| CSC1=NC2(CC(c3ccccc3)Oc3cc(O)ccc32)CC(C)(C)N1 (stereo unspecified) | inconclusive: 28.2 µM [inhibitor, single point] |  |
| CC(C)C[C@H](NC(=O)OC(C)(C)C)C(=O)N/N=C/C1=Cc2ccccc2OC1C (stereo partly specified) | inconclusive: 22.4 µM [inhibitor, single point] |  |
| O=C1CSC(=S)N1/N=C/C=C/c1ccccc1 | inconclusive: 28.2 µM [inhibitor, single point] |  |
| CCOc1ccc(S(=O)(=O)N(CC(=O)Nc2ccc3c(c2)OCO3)c2ccc(C)cc2)cc1 |  | inactive: -7.6% |
| O=C(CCSc1nc(-c2ccc3c(c2)OCO3)cc(C(F)(F)F)n1)NCc1ccco1 | inconclusive: 22.4 µM [inhibitor, single point] |  |
| COC(=O)c1cc2sccc2n1CC(=O)Nc1cc(Cl)ccc1OC |  | inactive: -7.98% |
| Cc1c(C)c2cc(Cl)c(O)c(CN3CCCCC3)c2oc1=O | inconclusive: 39.8 µM [inhibitor, single point] |  |
| O=c1/c(=C\c2ccc(O)cc2)sc2n1C(c1ccccc1)C(c1ccccc1)=NN=2 (stereo unspecified) |  | inactive: -2.76% |
| Clc1ccc(-c2nnc(SCc3nc4ccccc4[nH]3)o2)c(Cl)c1 | active: 6.31 µM |  |
| Nc1c(C(=O)NCc2ccc(Cl)cc2)sc2nc(-c3ccc(F)cc3)ccc12 | active: 12.6 µM |  |
| Cc1[nH]n(-c2ncc(-c3ccccc3)s2)c(=O)c1C(c1ccc(Br)cc1)C(C#N)C#N (stereo unspecified) | inconclusive: 25.1 µM [inhibitor, single point] |  |
| CCOC(=O)N(CC)c1ccc(C(O)(C(=O)OC)C(F)(F)F)cc1 (stereo unspecified) | inconclusive: 25.1 µM [inhibitor, single point] |  |
| Cc1nc(C)c(CCNC(=O)c2ccccc2Br)s1 | inconclusive: 25.1 µM [inhibitor, partial curve] |  |
| O=C(O)c1ccc(NC(=O)c2cn(-c3ccccc3)nc2-c2ccc(Br)cc2)cc1 | inconclusive: 31.6 µM [inhibitor, single point] |  |
| Cc1ccc(NC(=O)CN2CCC(NC(=O)C3CCCCC3)CC2)c(Br)c1 |  | inactive: -2.3% |
| C=CCn1c2ccccc2c2nnc(SCc3[nH]c(=O)[nH]c3C(=O)CCCCC(=O)OCC)nc21 | inconclusive: 17.8 µM [inhibitor, partial curve] |  |
| C=CC[C@](C)(Nc1ccc(OC)cc1)C(=O)OCC |  | inactive: 1.94% |
| CCOC(=O)Cc1csc(SCC(=O)/C(C#N)=C(\C)N)n1 | inconclusive: 6.31 µM [inhibitor, single point] |  |
| CCOC(=O)CNC(=O)C(CC(C)C)NC(=O)C1CCCCC1 (stereo unspecified) | inconclusive: 14.1 µM [inhibitor, partial curve] |  |
| C[C@H](NC(=O)c1ccccc1Cl)C(=O)OC(C(=O)Nc1cc(C(F)(F)F)ccc1Cl)c1ccccc1 (stereo partly specified) | inconclusive: 31.6 µM [inhibitor, single point] |  |
| COc1ccc(CCNc2oc(-c3cccc4ccccc34)nc2P(=O)(OC)OC)cc1OC | inconclusive: 31.6 µM [inhibitor, single point] |  |
| N#Cc1nc(-c2cccs2)oc1N1CCN(c2ccccc2)CC1 | inconclusive: 39.8 µM [inhibitor, single point] |  |
| COCCCNc1nc2c(-c3ccccc3)nnn2c2ccccc12 |  | inactive: 0.344% |
| S=C(Nc1ccc(N2CCOCC2)cc1)Nc1ccc2nc(-c3ccco3)c(-c3ccco3)nc2c1 | inconclusive: 12.6 µM [inhibitor, partial curve] |  |

| Structure (SMILES) | Potency | max response, negative = inhibition |
| --- | --- | --- |
| COc1ccc2cc3cc(C(=O)NCc4ccccn4)oc3nc2c1 | active: 31.6 µM |  |
| CCN1CCN(Cc2nc3cc(NC(=O)c4ccccc4[N+](=O)[O-])ccc3n2CC)CC1 | inconclusive: 28.2 µM [inhibitor, single point] |  |
| Cc1cccc(C(=O)NCC(=O)OCC(=O)N2CC3(C)CC2CC(C)(C)C3)c1 (stereo unspecified) | active: 14.1 µM |  |
| CCCOc1ccc(OC(=O)c2c(-c3ccccc3Cl)noc2C)cc1 |  | inactive: -4.1% |
| CC1(C)Cc2c(C#N)c(N3CCN(C(=O)c4ccco4)CC3)nc(-c3ccco3)c2CS1 | active: 28.2 µM |  |
| Cc1cccc2c3c(ccc12)C1=C(C(=O)C3=O)C(C)CO1 (stereo unspecified) | inconclusive: 28.2 µM [inhibitor, single point] |  |
| COc1cc(CNc2ccc3[nH]c(=O)[nH]c3c2)ccc1OCc1ccccc1F |  | inactive: -5.27% |
| COc1ccc(-n2cnc3cc(C(=O)NC4CCCCCC4)ccc32)cc1 |  | inactive: -9.2% |
| Cc1cc(C(=O)NCC(=O)OCC(=O)N(C)C2CCCCC2)ccc1[N+](=O)[O-] | inconclusive: 25.1 µM [inhibitor, single point] |  |
| CCc1cc(=O)oc2c(C)c(O)c(CN(C)C)cc12 | inconclusive: 25.1 µM [inhibitor, single point] |  |
| NC1=C(c2ccc(F)cc2)C(=O)CS1 | inconclusive: 7.94 µM [inhibitor, partial curve] |  |
| CCN1CCN(Cc2c(O)c(Cl)cc3c(C)cc(=O)oc23)CC1 | inconclusive: 31.6 µM [inhibitor, single point] |  |
| CCCCc1nnc(NC(=O)CSc2nc(=O)cc(N)n2-c2ccccc2)s1 | inconclusive: 25.1 µM [inhibitor, single point] |  |
| O=C(NCC#CCOCc1ccccc1)c1ccccc1 | active: 11.2 µM |  |
| O=C1Cc2ccccc2C(=O)N1CCc1ccccc1 | inconclusive: 25.1 µM [inhibitor, single point] |  |
| C=CCN1C=CC(=C/C=C(/C#N)C(=O)OCC)C=C1 | inconclusive: 31.6 µM [inhibitor, single point] |  |
| Cc1cc(C)cc(-n2ccnc(NCCc3ccccc3)c2=O)c1 |  | inactive: -0.9% |
| CC(=O)Nc1ccc(-c2cn3cccnc3n2)cc1 | inconclusive: 39.8 µM [inhibitor, single point] |  |
| COc1ccccc1-c1nc(C#N)c(N2CCN(c3ccccc3)CC2)o1 | inconclusive: 31.6 µM [inhibitor, single point] |  |
| Cc1ccc(F)cc1NCC(=O)Nc1ccc(Br)cc1 |  | inactive: -7.21% |
| Cc1cc(-n2c(=O)c(C#N)cc3c(=O)n4ccccc4nc32)no1 | inconclusive: 35.5 µM [inhibitor, single point] |  |
| C=CCNc1nc(-c2c(C)nc3sccn23)cs1 |  | inactive: -4.86% |
| Clc1ccc(C(c2ccc(Cl)cc2)n2cc[n+](CC(OCc3ccc(Cl)cc3Cl)c3ccc(Cl)cc3Cl)c2)cc1 (stereo unspecified) | inconclusive: 39.8 µM [inhibitor, single point] |  |
